Reference: PubChem BioAssay (NCI)
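Method: 48-hour compound exposure of cells in 96-well plates, five concentrations, linear interpolation of endpoints. GI50 marks 50% less growth. TGI: total growth inhibition.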 Square brackets hold non-standard residues; d marks the D form. Peptide text beside a SMILES is read from it. * marks the point of attachment. ξ: configuration not given here. Decanoyl(3R-OH) = CCCCCCC[C@@H](O)CC(=O)*; ξK = NCCCCC(N)C(=O)O; ξP = O=C(O)C1CCCN1

Tested on: NCI-H322M lung
Experiment: NCI-60 cell line screen, 48 h

Compound	GI50	TGI
CCCNc1nc(N(C)O)nc(N(C)O)n1	0.968 µM	> 100 µM
O=C(NCCCN1CCN(CCCNC(=O)c2cnc3ccccc3n2)CC1)c1cnc2ccccc2n1	–	> 100 µM
O=[N+]([O-])c1cccc(C2SCc3nc4ccccc4n32)c1 (stereo not drawn)	–	> 100 µM
Cc1csc2c(P(=O)(OC(C)C)OC(C)C)c(-c3ccccc3)cn12	–	24.8 µM
O=C(NC(=O)c1cn(CCN2CCNCC2)c(=O)[nH]c1=O)OCc1ccccc1	–	> 100 µM
c1cncc(CNc2ccccc2-c2nnc(Nc3ccc4c(c3)OCO4)o2)c1	4.37 µM	> 100 µM
CSCCC(NC(=O)C(Cc1ccccc1)NC(=O)CNC(=O)CNC(=O)C(N)Cc1ccc(O)cc1)C(=O)O (stereo not drawn)	–	> 100 µM
Cc1ccc(-n2c3c(c4c(CN5CCCCC5)c(O)ccc42)CCc2ccccc2C3=O)cc1	> 100 µM	> 100 µM
C/C=C/C=N/N(c1nnc(-c2ccccc2)c(-c2ccccc2)n1)S(=O)(=O)c1ccc(C)cc1	–	33.9 µM
C=C1CC(OC(C)=O)/C=C(/C)CCC(C(C)(C)O)CC1O (stereo not drawn)	–	> 100 µM
O=c1[nH]c(=S)[nH]c2c1sc(=S)n2-c1ccccc1	–	> 100 µM
CCOC(=O)c1ccc(N=C2SC(=S)N(c3ccc(F)cc3)C2=Nc2ccc(C(=O)OCC)cc2)cc1	–	> 100 µM
CC1=NN(c2nc(N)nc(CS(C)(=O)=O)n2)C(C)(C)C1	–	> 100 µM
NC(=O)c1ccccc1NC(=O)C(=O)C(C(=O)c1ccc2ccccc2c1)C1OC(=O)c2ccccc21 (stereo not drawn)	–	41.3 µM
CCCCCCC[C@@H](O)CC(=O)N[C@H](CCCCN)C(=O)N[C@H](Cc1c[nH]c2ccccc12)C(=O)NC(CCCCN)C(=O)N[C@H](CC(C)C)C(=O)N[C@H](Cc1ccccc1)C(=O)N[C@H](CCCCN)C(=O)N[C@H](CCCCN)C(=O)N[C@H](CC(C)C)C(=O)N1CCCC1C(=O)N[C@H](CCCCN)C(=O)N[C@H](Cc1ccccc1)C(=O)N[C@H](CC(C)C)C(=O)N[C@H](Cc1c[nH]cn1)C(=O)N[C@H](CC(C)C)C(=O)N[C@H](C)C(=O)N[C@H](CCCCN)C(=O)N[C@H](CCCCN)C(=O)N[C@H](Cc1ccccc1)C(=O)O (stereo partly drawn) ({Decanoyl(3R-OH)}-[dK][dW][ξK][dL][dF][dK][dK][dL][ξP][dK][dF][dL][dH][dL][dA][dK][dK][dF]-OH)	0.591 µM	1.07 µM
Cc1cccc(CN(C)c2ccc(CO)c(Cl)c2)c1	10.5 µM	62.3 µM
COc1cc(N=C(N)N=C(N)N)c2ncccc2c1	–	> 100 µM
CSC1=Nc2c(c(C)c(-c3ccccc3)n2COC(CO)CO)C2=NC(=O)C(C)N12 (stereo not drawn)	> 100 µM	> 100 µM

Compound	GI50	TGI
C=CCN1C(=O)/C(=c2\sc3n(c2=O)C2C(NN=3)N(CC)C(=O)N2CC)c2ccccc21 (stereo not drawn)	2.03 µM	> 100 µM
C=CCN1CCC(OC(=O)C(O)(/C=C\CC)C2CCCC2)CC1 (stereo not drawn)	–	> 100 µM
OC(c1ccccc1)(c1ccccc1)c1ccccn1	–	> 100 µM
CCN(CC)CCN1c2ccccc2Sc2ccc3ccccc3c21	–	23.1 µM
N#CC12COC3(CCCCC3C1(C#N)C#N)OC2=N (stereo not drawn)	–	76.5 µM
Cc1nn2c(N)cc(=O)nc2nc1/C=C/c1ccc(N(C)C)cc1	–	> 100 µM
C=CCC(C(=O)OC)C1(C(=O)OC)c2[nH]c3ccccc3c2CCN1Cc1ccccc1 (stereo not drawn)	–	> 100 µM
COCCc1c(C)c(C#N)c2n(C)c3ccccc3n2c1=O	–	> 10 µM
CN(C)c1nc(N(C)C)nc(N(C)CN(C)c2ccccc2)n1	–	> 100 µM
COc1ccc(Nc2c3ccccc3nc3c2c2ccccc2n3C)cc1	> 100 µM	> 100 µM
CCCCCCCCCc1cc(O)c(O)cc1CCCCCCCCC	–	> 10 µM
Cc1cccc2c1Oc1cc(Cl)ccc1C2NC(=O)CCN1CCCCC1 (stereo not drawn)	–	26.7 µM
CCN(CC)CCn1ncc2ccc3c(c(=O)c4cccnc4n3CCN(CC)CC)c21	–	4.34 µM
COC(=O)C(C(=O)C(=O)Nc1cccc(O)c1)c1nc2ccc(Cl)cc2[nH]c1=O (stereo not drawn)	–	> 100 µM
O=c1oc2ncccc2n1Cc1ccc([N+](=O)[O-])cc1	–	> 100 µM
CCOC(=O)/C(C(=S)NC)=C(/N)N1CCCC1	–	> 100 µM
OC(c1cc(C(O)(C(F)(F)F)C(F)(F)F)ncn1)(C(F)(F)F)C(F)(F)F	–	> 10 µM
